Assay results taken from PubChem BioAssay AID2708 (National Center for Advancing Translational Sciences (NCATS), 2010).
Inconclusive means that the source gave no clear call. Such entries were picked first, then a sample of the others. No potency is given beside an inconclusive call; the fits are too rough. Active and inactive are the calls of the source. Calls come from the whole dose curve; as a rule, active = well fitted inhibition curve with a large enough effect; inconclusive = small, poorly fitted or top-dose-only effect; inactive = no such curve, though single readings can be large or run the other way.

What follows are compounds tested against ATP-dependent DNA helicase Q1 (Homo sapiens) (UniProt P46063) (assay: Confirmation qHTS Assay for Inhibitors of RecQ-Like Dna Helicase 1 (RECQ1)). Details: RECQ1 helicase DNA unwinding, fluorescence; activity change, negative = inhibition: at the top concentration.
Source text: Survival of cells and the faithful propagation of the genome depend on elaborate mechanisms of detecting and repairing DNA damage. Treatment of advanced cancer relies on radiation therapy or chemotherapy, which kill cancer cells by causing extensive DNA damage. It is often found, that cancer cells develop resistance to therapy through enhanced activity of DNA repair functions; this has led to an increased interest in developing drugs that interfere with DNA repair, which could sensitize cancer cells to conventional therapy.
This validation qHTS assay pertains to human RECQ1, which is important in resolving abnormal DNA structures formed during replication or homologous recombination. Shutting down the expression of RECQ1 leads to chromosomal instability and higher radiation sensitivity in cultured cells.
The validation assay was a fluorescence quenching based kinetic qHTS for RECQ1 Helicase DNA unwinding. The activity was measured as ATP-dependent separation of a 20-bp DNA duplex extended by 30-nt single-stranded tails (forked duplex). The forked DNA substrate was tagged with rhodamine fluorophore (carboxytetramethyl rhodamine, TAMRA) and BHQ-2 (Black Hole Quencher 2) dark quencher. Strand separation results in an increase in the fluorescence of TAMRA (excitation 525 nm, emission 598 nm). This substrate construct operates in a red-shifted region where very few compound library members have been noted to fluoresce (PubChem AIDs 593 and 594). An additional feature of the assay is the inclusion of 2.5 ug/ml poly (dIdC), to reduce interference by compounds such as DNA intercalators, a major source of false inhibitors.
Opher Gileadi, Structural Genomics Consortium, University of Oxford
Screening Center PI: Austin, C.P.
Screening Center: NIH Chemical Genomics Center [NCGC]
Three uL of reaction buffer (25 mM Tris-HCl (pH 8.0), 5 mM NaCl, 2 mM MgCl2, 1mM DTT, 0.01% Tween- 20, and 2.5 ug/ml poly(dI-dC), including enzyme (50 nM RECQ1T1), were dispensed into a 1536-well Greiner black assay plate via solenoid-valve based nanoliter dispensers. Compounds (23 nl each in columns 5-48) and control (23 nl each in column 2 as dose-response) were transferred via a Kalypsys pintool equipped with a 1536-pin array. The plates were incubated for 15 min at room temperature, and then 1 ul of substrates (200 nM DNA and 2 mM ATP, final concentrations) was added to start the reaction. The plate was transferred into a ViewLux high-throughput CCD imager where the reaction progress was measured in a discontinuous kinetic mode (two reads spaced 2 hours apart, with intermediate room temperature incubation of the covered assay plate) by using standard red-fluorescence optics (excitation filter 525 nm, emission filter 598 nm). Enzyme-free and vehicle (DMSO) controls were included for signal normalization.
% is set by controls: 0 for no effect and ±100 for the full control effect; potency is the fitted concentration of half-maximal effect; tags give direction and shape of the fitted curve.
Note: nearly all actives have a fitted effect of over 45% in size.

Chain of UniProt P46063 (P46063 whole entry, looked up): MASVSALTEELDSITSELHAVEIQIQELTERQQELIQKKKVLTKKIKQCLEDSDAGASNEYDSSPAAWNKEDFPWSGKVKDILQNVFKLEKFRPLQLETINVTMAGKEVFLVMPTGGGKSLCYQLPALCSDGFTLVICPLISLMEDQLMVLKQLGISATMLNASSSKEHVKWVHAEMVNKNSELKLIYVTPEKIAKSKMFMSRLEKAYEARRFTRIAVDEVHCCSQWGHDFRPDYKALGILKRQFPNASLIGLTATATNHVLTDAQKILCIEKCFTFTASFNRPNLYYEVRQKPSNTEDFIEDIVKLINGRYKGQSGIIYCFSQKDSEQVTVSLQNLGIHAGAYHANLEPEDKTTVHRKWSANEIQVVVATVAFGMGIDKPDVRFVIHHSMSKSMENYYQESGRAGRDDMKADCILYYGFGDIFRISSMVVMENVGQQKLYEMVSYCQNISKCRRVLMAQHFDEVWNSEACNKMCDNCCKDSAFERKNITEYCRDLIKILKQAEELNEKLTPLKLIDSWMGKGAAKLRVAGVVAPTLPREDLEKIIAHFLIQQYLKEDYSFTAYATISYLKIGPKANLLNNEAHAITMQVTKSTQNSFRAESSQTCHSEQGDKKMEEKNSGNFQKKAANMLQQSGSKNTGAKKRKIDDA

Row | Compound | Potency | activity change, negative = inhibition
1 | Cn1c(O)c(/C=N/NC(=O)c2ccncc2)c(=O)[nH]c1=S | inconclusive [inhibitor, single point] | –
2 | Cc1c2ccncc2c(C)c2c1[nH]c1ccccc12 | inconclusive [inhibitor, partial curve, poor fit] | –
3 | CCn1nc(-c2cccs2)nc2c(=O)n(C)c(=O)nc1-2 | inconclusive [inhibitor, full curve, poor fit] | –
4 | Cc1cccc(OCCn2cccc2/C=C2/C(=O)NC(=O)N(Cc3ccco3)C2=O)c1 | inconclusive [inhibitor, partial curve, poor fit] | –
5 | c1ccc(C2N3CCCN23)cc1 (stereo unspecified) | – | inactive: 13.4% [at 114 µM]
6 | O=C(OCC1O[C@@H](OC(=O)c2cc(O)c(O)c(O)c2)[C@@H](OC(=O)c2cc(O)c(O)c(O)c2)[C@@H](OC(=O)c2cc(O)c(O)c(O)c2)[C@@H]1OC(=O)c1cc(O)c(O)c(O)c1)c1cc(O)c(O)c(O)c1 (stereo partly specified) | inconclusive [inhibitor, partial curve, poor fit] | –
7 | O=c1c(O)c(-c2ccc(O)c(O)c2)oc2cc(O)cc(O)c12 | inconclusive [inhibitor, full curve, poor fit] | –
8 | O=C1C=CC(=O)C(Cl)=C1 | inconclusive [inhibitor, partial curve, poor fit] | –
9 | CC[C@@]1(O)CC(O)c2c(cc3c(c2O)C(=O)c2c(O)ccc(O)c2C3=O)C1C(=O)OC (stereo partly specified) | active: 50.1 µM | –
10 | CC[C@@H](CO)NC(=O)[C@@H]1C=C2c3cccc4c3c(cn4C)C[C@H]2N(C)C1 | inconclusive [inhibitor, single point] | –
11 | CN(C)[C@@H]1C(=O)C(C(N)=O)=C(O)[C@]2(O)C(=O)C3=C(O)c4c(O)cccc4[C@@](C)(O)[C@H]3[C@H](O)[C@@H]12 | – | inactive: 63.5%
12 | C[C@]12CC[C@@H]3c4ccc(OC(=O)N(CCCl)CCCl)cc4CC[C@H]3[C@@H]1CC[C@@H]2O | inconclusive [inhibitor, full curve, poor fit] | –
13 | CN1C[C@H](C(=O)N[C@]2(C)O[C@@]3(O)[C@@H]4CCCN4C(=O)[C@H](Cc4ccccc4)N3C2=O)C=C2c3cccc4[nH]cc(c34)C[C@H]21 | inconclusive [inhibitor, full curve, poor fit] | –
14 | CCc1ccc(N2C(=O)NC(=O)/C(=C\C=C\c3ccco3)C2=O)cc1 | inconclusive [inhibitor, partial curve] | –
15 | CC(N)C(O)c1ccc(O)c(O)c1 (stereo unspecified) | inconclusive [inhibitor, partial curve, poor fit] | –
16 | NCCc1cc(O)c(O)cc1O | active: 126 µM | –
17 | CCN(CC)C(=O)c1ccc2c(c1)C1C(Cl)C(Sc3ccccc3[N+](=O)[O-])CC1C(C(=O)O)N2 (stereo unspecified) | inconclusive [inhibitor, single point] | –
18 | O=c1cc(-c2ccc(O)c(O)c2)oc2cc(O)cc(O)c12 | inconclusive [inhibitor, partial curve, poor fit] | –
19 | C[C@H](N)[C@H](O)c1ccc(O)c(O)c1 | – | inactive: 28.5%
20 | CN1C[C@@H](C(=O)N[C@@]2(C)O[C@]3(O)C4CCCN4C(=O)[C@@H](Cc4ccccc4)N3C2=O)C=C2c3cccc4[nH]cc(c34)C[C@@H]21 (stereo partly specified) | inconclusive [inhibitor, full curve, poor fit] | –
21 | CC[C@@H](CO)NC(=O)[C@@H]1C=C2c3cccc4[nH]cc(c34)C[C@H]2N(C)C1 | – | inactive: 3.4% [at 229 µM]
